The campaign covered roughly 310,000 compounds. About 14,000 (4.5%) showed an effect of 50% or more. The effect is printed as a negative number. Some of the results follow.
target: human ether-à-go-go-related gene (hERG) potassium channel (human, UniProt Q12809); experiment: primary screen, population patch clamp on CHO cells stably expressing hERG
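Note: peak tail current of the secondary pulse compared with the same well before compound.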

human ether-à-go-go-related gene (hERG) potassium channel, sequence (Q12809 whole entry, looked up): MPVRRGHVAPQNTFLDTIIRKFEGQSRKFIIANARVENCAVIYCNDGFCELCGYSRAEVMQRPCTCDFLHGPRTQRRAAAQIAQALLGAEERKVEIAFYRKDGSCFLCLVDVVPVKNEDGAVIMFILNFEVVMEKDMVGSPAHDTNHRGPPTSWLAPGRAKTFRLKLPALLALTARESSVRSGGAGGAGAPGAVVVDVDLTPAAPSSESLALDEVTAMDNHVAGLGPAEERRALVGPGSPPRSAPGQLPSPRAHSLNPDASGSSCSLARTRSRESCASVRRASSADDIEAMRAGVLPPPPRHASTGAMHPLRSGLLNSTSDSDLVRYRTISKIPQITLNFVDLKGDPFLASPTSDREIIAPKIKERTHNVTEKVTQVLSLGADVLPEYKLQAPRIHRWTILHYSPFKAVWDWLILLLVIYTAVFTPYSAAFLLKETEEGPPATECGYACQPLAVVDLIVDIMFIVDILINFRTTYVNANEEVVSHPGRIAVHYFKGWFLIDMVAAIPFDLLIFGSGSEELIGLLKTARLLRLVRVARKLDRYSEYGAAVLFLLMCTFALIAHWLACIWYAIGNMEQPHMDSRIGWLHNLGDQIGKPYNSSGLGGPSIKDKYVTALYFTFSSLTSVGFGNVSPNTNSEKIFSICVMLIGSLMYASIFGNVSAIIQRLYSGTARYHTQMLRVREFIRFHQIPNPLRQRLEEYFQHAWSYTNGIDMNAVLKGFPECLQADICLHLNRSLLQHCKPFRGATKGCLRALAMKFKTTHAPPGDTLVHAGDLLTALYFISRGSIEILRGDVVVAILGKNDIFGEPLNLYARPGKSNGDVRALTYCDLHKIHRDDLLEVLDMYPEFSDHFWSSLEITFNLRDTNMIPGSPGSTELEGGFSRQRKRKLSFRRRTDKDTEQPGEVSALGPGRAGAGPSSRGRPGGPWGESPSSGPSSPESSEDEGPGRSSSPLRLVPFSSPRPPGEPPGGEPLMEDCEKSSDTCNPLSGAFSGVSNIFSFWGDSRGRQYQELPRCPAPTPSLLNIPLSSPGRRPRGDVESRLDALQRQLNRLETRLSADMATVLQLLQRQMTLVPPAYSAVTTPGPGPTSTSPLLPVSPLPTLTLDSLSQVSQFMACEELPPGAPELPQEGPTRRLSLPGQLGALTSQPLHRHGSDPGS

SMILES	hERG current change (%, negative = inhibition) at 10uM
COc1ccc(NC(=O)/C(C#N)=C/c2cc(C)n(-c3ccc(N4CCOCC4)c([N+](=O)[O-])c3)c2C)cc1	-5.12%
O=C(Nc1nnc(SCCC2OCCO2)s1)C1CC(=O)N(c2ccc(F)cc2)C1 (stereo not shown)	-0.557%
Cc1cc(C)cc(Oc2nc(-c3ccccc3)cc(C)c2S(C)(=O)=O)c1	-1.22%
O=C(COc1ccccc1)N1CCN(C(=O)Cc2ccccc2)CC1	-1.51%
Cc1ccc(C(=O)NCc2ccccc2CN2CCCC2)cc1S(=O)(=O)N1CCOCC1	-61.4%
CC(=O)NCC(=O)NC1CCCc2c1cnn2-c1ccccc1F (stereo not shown)	19.4%
O=C(COC(=O)c1cc[n+]([O-])cc1)Nc1ccc([N+](=O)[O-])cc1	11.8%
C/C=C\C=C\C(=O)Nc1cccc(C2=NOC3(C2)C[C@H](C(N)=O)N(C(=O)c2ccccc2C(=O)c2ccccc2)C3)c1 (stereo partly shown)	-21.5%
COCCN1C(=O)N(c2ccccc2)C(=O)C1CC(=O)Nc1cc(OC)cc(OC)c1 (stereo not shown)	14%
COCCn1c(C)cc(C(=O)COc2ccc(N(C)S(=O)(=O)c3ccc(C)cc3)cc2)c1C	-19.9%
COc1cccc(CNCCO)c1OCc1ccccc1Cl.Cl	-8.68%
CCOC(=O)N1CCC2(CC1)NCCc1c2[nH]c2ccccc12	1.56%
CC1(C)CC(=O)C2=C(C1)Nc1cc3c(cc1C2c1ccc(F)cc1)OCO3 (stereo not shown)	-41.8%
Cc1c(C#N)c(NC(=O)CCl)n(Cc2cccs2)c1C	-11.4%
O=C(NCC(c1cccnc1)N1CCN(c2ccc(F)cc2)CC1)c1cccc(Cl)c1 (stereo not shown)	-66.2%
Cn1c(=O)cc(SCC(=O)NCCC2=CCCCC2)c2ccccc21	-11.3%
O=C1N(Cc2cccnc2)C[C@@H]2C[C@@H](c3ccccc3C(F)(F)F)N3CCC[C@@]123	-11.2%
CC(=O)c1ccc(NC(=O)Cn2cnc(S(=O)(=O)N3CCc4ccccc43)c2)cc1	15.2%
COc1ccc(OC)c(NC(=O)CSc2nncc3ccccc23)c1	8.9%
Cc1ccc(NC(=S)NCc2ccc(Cl)cc2)c(C)c1	7.94%
Cc1c(NC(=O)CSCc2ccc(Br)cc2)c(=O)n(-c2ccccc2)n1C	28.2%
CC(=O)Nc1ccc(S(=O)(=O)N(Cc2cc3ccc(C)cc3[nH]c2=O)CC2CCCO2)cc1 (stereo not shown)	9.91%
COc1ccc(CCNC(=O)C(C(=O)c2ccccc2)n2ccccc2=O)cc1OC (stereo not shown)	-0.768%
O=C(c1ccc(S(=O)(=O)Nc2ccccc2)cc1)N1CCOCC1	7.64%
COC(=O)CCCC1=CC2=C(c3ccccc3)C(=O)C(C)(OC(=O)C3CCCC3)C(=O)C2=CN1c1ccc(OC)cc1 (stereo not shown)	-32.5%
COc1ccc(C(C(=O)NC2CCCC2)N(C(=O)c2ccco2)c2ccccc2C(C)=O)cc1OC (stereo not shown)	2.99%

SMILES	hERG current change (%, negative = inhibition) at 10uM
O=C1c2cccc3c([N+](=O)[O-])ccc(c23)C(=O)N1c1ccccn1	7.95%
Cc1c(C)c2cc(Cl)c(OCC(=O)NC3CC(C)(C)NC(C)(C)C3)cc2oc1=O	-6.44%
Cc1ccccc1C(=O)Nn1cnnc1	3.49%
CCCC(C(=O)NC1CCCC1)N(Cc1ccc2c(c1)OCO2)C(=O)c1snc(C(N)=O)c1N (stereo not shown)	9.13%
Cc1ccc(NC2CCCN(C(=O)c3cccs3)C2)cc1C (stereo not shown)	0.412%
Cc1cc(C)c(NC(=O)C2CCCN2C(=O)NC2CCCCC2)c(C)c1 (stereo not shown)	4.84%
Cc1ccc2oc(=O)c(/C=C(\O)C(C)(C)C)nc2c1	17.1%
COC(=O)CCC(=O)c1oc2ccccc2c1NC(=O)CCCN1C(=O)c2ccccc2C1=O	-8.43%
CCCCNC(=O)c1cn(CC(C)C)c(=O)c2c1c1ccccc1n2C	0.174%
Cc1ccc(S(=O)(=O)N2CCN(C)CC2)c(C)c1N(C)S(=O)(=O)c1ccc(Cl)cc1	-68.7%
CCOC(=O)N1CCc2c(sc(NC(=O)C3COc4ccccc4O3)c2C(N)=O)C1 (stereo not shown)	11.4%
CC(C)(C)C1CCC(=NNC(=O)CN(c2ccccc2)S(C)(=O)=O)CC1 (stereo not shown)	6.6%
O=C(CN1CCC(C(=O)c2ccc3c(c2)OCCO3)CC1)Nc1ccccc1F	-0.724%
O=C(O)CC(NCc1ccco1)C(=O)Nc1cccc(O)c1 (stereo not shown)	14%
COC(=O)CN1C(=O)[C@H]2[C@@H](C3CC3)N3C(=O)CN(CCO)C(=O)[C@@]3(Cc3ccccc3)[C@H]2C1=O	8.75%
N/C(=N\N=C\c1ccc(O)cc1)c1nonc1N	10.2%
O=C(NCc1cccnc1)c1ccc(COc2ccccc2Br)cc1	12.6%
CC(C)(C)NC(=O)Cn1c(Cl)nc2ccccc21	27.9%
CCOC(=O)C1CCCN(Cc2nc(N)nc(Nc3ccc(C)cc3)n2)C1 (stereo not shown)	-69.5%
Cc1ccc(CS(=O)(=O)Cc2ccc(C(=O)NCc3cccnc3)o2)cc1	-17.4%
COc1ccc(-c2c3c(=O)n(C)c(=O)n(C)c3cn2-c2ccccc2)cc1	4.72%
O=C(Cn1nc(-c2ccc(Cl)cc2)ccc1=O)NCc1ccc2c(c1)OCO2	-12.5%
O=C(CCN1C(=O)c2ccccc2C1=O)Nc1cccc(S(=O)(=O)N2CCCCC2)c1	-20%
O=C(NCCO)c1ccc2[nH]c3ccccc3c2c1	9.18%
CC(C)(C)n1nc2c(c1NC(=O)Cc1ccc([N+](=O)[O-])cc1)CS(=O)(=O)C2	-12.6%
Cc1ccc(Nc2nc3ccccc3nc2Nc2c(C)n(C)n(-c3ccccc3)c2=O)cc1	10.4%

— PMC4336329 (PLoS ONE, 2015)
